# From publication PMC10726135
# This is one part of the list. At the low end of the ranking the order means little. Measured with an extract: partners may take part in the binding.
# Target: T1, HNF4alpha8 (COS-7 nuclear extract) (UniProt P41235-5)
# T1 sequence: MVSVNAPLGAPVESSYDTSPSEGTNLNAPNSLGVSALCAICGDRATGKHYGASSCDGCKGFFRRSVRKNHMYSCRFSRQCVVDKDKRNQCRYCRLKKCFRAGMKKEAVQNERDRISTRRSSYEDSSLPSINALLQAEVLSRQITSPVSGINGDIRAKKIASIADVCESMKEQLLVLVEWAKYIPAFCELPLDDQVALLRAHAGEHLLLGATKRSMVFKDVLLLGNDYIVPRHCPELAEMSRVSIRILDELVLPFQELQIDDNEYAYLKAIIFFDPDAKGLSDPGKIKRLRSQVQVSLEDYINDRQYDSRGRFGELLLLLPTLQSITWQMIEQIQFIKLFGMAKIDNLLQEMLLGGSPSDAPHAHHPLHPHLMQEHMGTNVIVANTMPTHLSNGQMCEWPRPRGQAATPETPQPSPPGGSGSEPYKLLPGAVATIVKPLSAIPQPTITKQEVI
# Test: protein-binding microarray
# Conditions: COS-7 nuclear extract on double-stranded Agilent 4x180k PBM; binding buffer, salt, pH and temperature not given; high values mean tight binding; double strand, one strand shown; sequences stand for … in …GCCTAGGGAGATTAGAGTATCGGTCGA
row,Sequence,binding signal (log2 normalized intensity)
1,GGAAACTCCATTTCCTTCTAGCTCCCCAAT,3.27
2,TGCTTGTCTTGGTTGTAGAAGGCTTAAGAT,1.16
3,CAGGATTACTATAGGTTCTACTCTCCCCAG,1.62
4,TGGGAACTGCGGACATAGCTTGCCACAGCA,-1.34
5,ACCAGACAAGATCAATCAATTTACCTCTGC,-1.52
6,CCCAGTGCTCTCTCCTGCATTCCTGTCCAC,0.684
7,CCTCCCCCCTTGGCTACATGTTTGTCTTTC,2.91
8,ACATTGTCCATCACCTGGCTCTGAAAAACA,-1.32
9,TTCTGCTTCTTCTCATTCTTGGAATAAGCA,-1.25
10,AGAGGTGAGAGCAGAATGAGCAAGGTGGGT,-1.12
11,CAGGATCCAAGATCCAACTCTGAAGATTCA,-1.23
12,ACTGATAAGGTTCCAGCAAAGAGATTAGGA,-1.41
13,CTTTCTTTGTCTGTGTAGACTCATCTGGTG,1.89
14,ACACAGCTTGGAGCTCCTTGTGAGCAGGAT,-1.29
15,CGGTTCCGGGCGGCAGCACAAGGCGGTAGC,-1.2
16,AAGGGTAAAGATTATGAACTAATTTGTCTT,-0.728
17,AGCTTCAAAGGACAGGCTGACTATCACTGG,-1.27
18,AGATGTAAACATCATTCACGTGCCTGAGAT,-0.397
19,TCGGTTTTCAAATGAACCCGGCAGGCGGGA,2.18
20,TCTAGAAGAGGTTAAAGACCTTTGGGTAGG,2.82
21,AACCAAAGGATTATTACATGTTTACCCACA,0.782
22,CTGCAGAGGGACTGACTCCCTTTTCAACAA,-1.31
23,CATGTGGGTCCAAAGAACATTGCATTCCTT,2.09
24,GGGCAAATGGAAGAATCACAGTGTGGGGCA,-0.0916

row,Sequence,binding signal (log2 normalized intensity)
1,TCAGAAAACCCACGCCCACCCTATTGATGC,2.72
2,ACCCAGGTATGACAAGCATGCACTGGGGTT,-0.97
3,TGGTAAGTGCAAGGCCCAGCTAGAAGCAGT,-1.28
4,AGTTTTCTCTGTCCCAAGAGCAAGAAGGTC,1.62
5,ACTCAGGATACCTAAGCCCCATGCTGATAA,1.62
6,ACATTGCAAATCTCTTCTTCCTTTCTATCA,-0.0142
7,AAGGGGGGTGGGGAGGCAGGTGGCTACATG,-1.22
8,TGCCATTTATCAGTGATTTCTCTTCCATCT,0.611
9,TTTGGACCTGGCCTGCGGGGTCAGGCCGTG,2.71
10,TGCAAGGTTCTCTCTTCTTCCCCTCCTTCA,2.29
11,TTGAGAAGCAGGAGCATGGGGGATGGGGCC,-1.44
12,CTCCCAGAGGTCGATCTGATCTTAAGTTGT,1.72
13,TCAAGACCGATTGTGTTTTAGGCAAACATT,0.131
14,GCCCAAGATAACCTCCCCTCTGACCAGAGA,2.01
15,TGAAGGCAGGGCTTTTCCATTGACAGTCCA,-0.79
16,GTACAGGCAGTGACTGGACCACGATCAGCC,-1.36
17,TGAAATTCAACAGAACTGTTTGAGGGTAAA,-1.19
18,CCTGGGGCCTTGGGCCACCTGAGACAGTTT,-1.3
19,TGATAAGCAGTGTGGACTTTTTCCTGAGGG,1.42
20,GGGAGTTGGGGTCCAAAGTCTTTGTTCCTA,4.49
21,AATTCTTAAGCCAAAGTCCAAGTTGGTGAG,3.81
22,AGCACGATGAATAGGGACGTTCTACTTGTT,-0.192
23,TCAAGTCATAACTGGATGGTGCCTATTTGT,1.28
24,CAAACAATGAGAGGCAACATTCCCAGTTAT,-1.28

row,Sequence,binding signal (log2 normalized intensity)
1,CTCCAGGGACTGAGGGAGGGAGGAGGGACT,-1.37
2,CTCCAAGGGTATAGGATAAGGAATGAAGCA,-1.18
3,ACTCCGGGGAGCAGGCAGAGGAACAGAGGG,-1.3
4,CTGTTCACATGCTAATTACGGGCAGAGCTG,-0.568
5,TTCCTTATCTGGAATTCCTCCTCCTGTTTG,0.85
6,TCTCAGTGGGTGGGAAAGGGTGCTCCAGGC,-1.25
7,TAAGATACGAAGGGTTTAAAGGGCAGAAGA,2.39
8,GGCCTAGACACAGACTCAAGTGAGGAAGGA,-1.12
9,ATGTTTCCTCTCCCAGCCCCTAGCCCTAAG,3.3
10,CGCTGCTGCAGAGCAAAGCTGATAAAGAGG,-1.24
11,CCTCAAGAGACAACCAAGGTTGCAGAGTGT,-0.349
12,AGACATAACTCAAACATCTGACAGAGATAA,-1.35
13,AGTCTTGGCCCCACCGGTCACGACCCCGCT,3.94
14,TTAATCACAGGATTTAAAGAATTCCAGACA,-1.38
15,TCACACAAATGGATCTTTCTTCAAAAAGAG,-0.0678
16,CAAGATTAGTGGGAAAGCTATTGCTCTGCA,-1.34
17,ACCTGTATTAGGAAATTGTCAGTGCCCTAT,2.62
18,AATGGGAGGAACTCCAGAACCAAAGTCCTA,-1.19
19,AGGCCGCGCCCGCCCGCGCCGGCCTCGGTC,-1.26
20,AAGATAAGGACTGTTGGACCTCGAACTCCA,5.09
21,CTGGAAGCTCTTCTGTGCCTCCCAAATGCA,1.92
22,TGCACTGTTTGCATAAAGTTAAACTTTAAA,1.29
23,GCCCGAAAGACGCGGAGCGGGGGACCGAGA,-1.28
24,TGGATAAAGTCCATATTCTTTGTTTGGATG,2.28

row,Sequence,binding signal (log2 normalized intensity)
1,GCCAAAGGTAATAGGAAAAGGGAGTTTTCT,-1.27
2,AGCCTCTCTGCAAACATTTATTTTGTGTGC,1.44
3,AGGTGACAGCCTTTTCTTATCAGGCTCATT,-1.02
4,ATACAGACACACCTAGGGAGTTAATCACAG,-1.16
5,CAGTTTTCCTAAGGGGCTTTTATTGGCTCC,0.128
6,TCAACATTGATGGGGCAGGGAAATATGTTC,1.02
7,AAAATTAAGGTTCAAAGGGAAAAAATAATC,-0.034
8,AGGAACTTGTCTAAAAACATTGTGGAGCTC,0.736
9,CATACAATGAATATTCAGACGCATGACCTC,3.74
10,GTACTTTCTTTTGGCTCTCTCTCTTGGTTC,1.52
11,AAAAGCAAACCGAGATCAAGGGACAGAGAT,-1.31
12,TAACGGTGAGGGAGGAGACTTTGACCTCTG,7.45
13,CTGGATGACCTTTGTCCTGGCACAACTGGA,6.78
14,ATTAGCTGAACATGGTGACACACACCTCCA,-1.37
15,TAAGGTTGTACTTTGGAGTTTACTTTAGAT,3.58
16,CAAATAACATTCCTAACATTCTTCCTCACA,-0.982
17,TTCCCTATCTAGCCACTTTCTTTGTCTGTG,0.864
18,TGTGTGTGTGTGTGTATGCCATGCTAATTG,2.09
19,TAGCATGCTCTCTTGTCAAGACCGATTGTG,0.128
20,AAAATGGGTACAGACAATAGGAAGAGTGAG,-1.38
21,GGTACCATCTGCCACTCATAGAACTGTCGC,-1.34
